Values joined by “and” are separate entries in the source; they are usually repeats but may differ in a detail not shown here. Equal values may be shown once. The whole screen tested about 230,000 compounds, of which about 3,600 (1.6%) were called active. Inconclusive results, whose numbers are uncertain, are shown with a selection of clear calls. Calls come from the whole dose curve; as a rule, active = well fitted inhibition curve with a large enough effect (not every such curve was filed as active); inconclusive = small, poorly fitted or top-dose-only effect, or another doubt; inactive = no such curve, though single readings can be large or run the other way. A potency beside an inconclusive call is a rough fit, not a confirmed value. Some structures have more than one record in an assay (separate samples or runs), and their calls can disagree.
Target: Lysine-specific demethylase 4E (Homo sapiens) (UniProt B2RXH2)
Assay: qHTS Assay for Inhibitors of Human Jumonji Domain Containing 2E (JMJD2E)
Conditions: JMJD2E catalytic domain, FDH-coupled NADH fluorescence (FDH is formaldehyde dehydrogenase); series mostly up to 57.1 µM; activity change, negative = inhibition: at the top concentration
Note: nearly all actives have a fitted effect of over 50% in size.
Potency is the fitted concentration of half-maximal effect; tags give direction and shape of the fitted curve.
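Throughout, for activity change, negative = inhibition: 0% = wells with enzyme and -100% = buffer wells without enzyme.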

Chain of UniProt B2RXH2 (B2RXH2 whole entry, looked up, the tested form may be a part): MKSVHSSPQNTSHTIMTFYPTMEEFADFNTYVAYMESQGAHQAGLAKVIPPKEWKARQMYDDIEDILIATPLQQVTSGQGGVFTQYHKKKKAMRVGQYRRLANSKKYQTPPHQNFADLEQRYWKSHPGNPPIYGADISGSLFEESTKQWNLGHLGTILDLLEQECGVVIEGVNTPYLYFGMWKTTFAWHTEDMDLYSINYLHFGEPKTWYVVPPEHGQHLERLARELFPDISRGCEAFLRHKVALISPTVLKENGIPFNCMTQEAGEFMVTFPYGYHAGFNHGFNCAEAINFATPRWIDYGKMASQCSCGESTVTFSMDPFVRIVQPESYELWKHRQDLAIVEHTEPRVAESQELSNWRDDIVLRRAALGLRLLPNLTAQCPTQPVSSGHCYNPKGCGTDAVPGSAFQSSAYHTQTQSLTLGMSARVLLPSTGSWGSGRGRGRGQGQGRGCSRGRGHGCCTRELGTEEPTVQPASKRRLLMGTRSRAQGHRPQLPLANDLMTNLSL

SMILES | Potency | activity change, negative = inhibition
COc1ccc(CC(=O)Nc2cc(C)on2)cc1 | inconclusive: 6.31 µM [inhibitor, single point] | 
C[C@@](N)(C(=O)O)c1ccc(P(=O)(O)O)cc1 | inconclusive: 39.8 µM [inhibitor, single point] | 
CN(CC(=O)NCCc1ccc(Cl)cc1)S(=O)(=O)c1ccc2c(c1)c(=O)n(C)c(=O)n2C |  | inactive: -3%
CC1Cc2cc(/C(O)=C3\C(=O)C(=O)N(CCN(C)C)C3c3ccccc3F)ccc2O1 (stereo not drawn) | inconclusive: 0.794 µM [inhibitor, single point] | 
O=C(N/N=C/c1c[nH]c2ccccc12)c1cc(-c2ccc(-c3ccccc3)cc2)n[nH]1 | inconclusive: 39.8 µM [inhibitor, single point] | 
Cc1nn(Cc2cccc(C(=O)N3CCCC(C)C3)c2)c(C)c1[N+](=O)[O-] (stereo not drawn) |  | inactive: 6.33%
C/C(=N\Nc1ccc([N+](=O)[O-])cc1)c1cc2ccccc2o1 |  | inactive: 5.21%
COc1ccc(C(=O)Nc2ccccc2-c2nnn(CC(=O)NCc3ccco3)n2)cc1 | inconclusive: 28.2 µM [inhibitor, single point] | 
S=C(NCc1cccnc1)Nc1ccc(Oc2ccccc2)cc1 | inconclusive: 7.08 µM [inhibitor, full curve, poor fit] | 
Clc1ccc(-c2n[nH]c3c2CCC3)cc1Cl |  | inactive: -7.38%
CC(C1CC2CCC1C2)n1c(-c2cccs2)n[nH]c1=S (stereo not drawn) | inconclusive: 31.6 µM [inhibitor, single point] | 
Cc1oc(C(=O)O)cc1COc1ccc2c3c(c(=O)oc2c1C)CCCC3 | inconclusive: 39.8 µM [inhibitor, single point] | 
CNC(=S)NNC(=O)c1oc2nc(-c3ccccc3)cc(-c3ccco3)c2c1N | inconclusive: 22.4 µM [inhibitor, single point] | 
CCn1c2ccccc2c2cnc(N=CN(C)C)c(C#N)c21 | inconclusive: 25.1 µM [inhibitor, partial curve] | 
COc1cc2c3nnc(-c4ccc(F)cc4)c-3cn(Cc3cccc(C)c3)c2cc1OC | inconclusive: 31.6 µM [inhibitor, single point] | 
CC(C)c1onc(C(=O)N2CCCCCC2)c1[N+](=O)[O-] |  | inactive: 7.01%
OCCCc1nc2n(n1)C(c1ccccc1)C=C(c1ccccc1)N2 (stereo not drawn) | inconclusive: 28.2 µM [inhibitor, partial curve] | 
COC(=O)c1sc2ncccc2c1OCc1ccc(Cl)cc1 | inconclusive: 35.5 µM [inhibitor, single point] | 
N[C@H](C(=O)O)c1cc(O)cc(O)c1 | inactive and active: 15.8 µM | 
CCCCNC(=O)CSc1cc(=O)n(C)c2ccccc12 | inconclusive: 28.2 µM [inhibitor, single point] | 
CCCCCCCCNC(=O)c1cnccn1 | inconclusive: 39.8 µM [inhibitor, single point] | 
O=C(O)C1Cc2[nH]cnc2C(c2ccccc2O)N1 (stereo not drawn) | active: 31.6 µM | 
COc1cc2c(cc1OC)CN(C(=O)CC1CC3CCC1C3)CC2 (stereo not drawn) | inconclusive: 39.8 µM [inhibitor, single point] | 
CCn1c(SCC(=O)N2CCCCC2)nc(O)cc1=O |  | inactive: 3.57%
CCOc1cccc(C(=O)Nc2ccc3oc(Cc4ccc(Cl)cc4)nc3c2)c1 | inconclusive: 31.6 µM [inhibitor, single point] | 

SMILES | Potency | activity change, negative = inhibition
COC(=O)C1=C(C)N(Cc2cccnc2)C(=O)C1 |  | inactive: -11.4%
Cc1ccn2cc(CCNC(=O)C3CCCCC3)nc2c1 | inconclusive: 28.2 µM [inhibitor, partial curve] | 
OCCN(CCO)CC(O)CN(c1ccccc1)c1ccccc1 (stereo not drawn) | inconclusive: 28.2 µM [inhibitor, single point] | 
O=C(NCc1ccco1)c1ccc2c(c1)N(Cc1ccc(Cl)cc1)CCS2 | inconclusive: 31.6 µM [inhibitor, partial curve] | 
CCCn1c(-c2ccncc2)n[nH]c1=S |  | inactive: 1.45%
COc1ccc(/C=C/C(=O)Nc2nonc2NC(C)=O)cc1 | inconclusive: 35.5 µM [inhibitor, single point] | 
COc1ccc(-c2cc(C(F)(F)F)nc(SCCC(=O)NCc3ccco3)n2)cc1 | inconclusive: 25.1 µM [inhibitor, single point] | 
COc1ccc(/C=C2\CCCC3C2=NN(C(=O)COC(=O)CNC(=O)c2ccccc2)C3c2ccc(OC)cc2)cc1 (stereo not drawn) | inconclusive: 39.8 µM [inhibitor, single point] | 
Cc1cccc(C#Cc2ccccc2)n1 | active: 12.6 µM | 
C[C@@H](C(=O)Nc1ccc2ccccc2c1)[C@@H]1C[C@@]1(C)[C@@H](NS(=O)(=O)c1ccc2ccccc2c1)c1ccccc1 | active: 14.1 µM | 
c1ccc(-c2nnc(-c3ccccn3)s2)nc1 | active: 2.82 µM | 
O=C(NCc1ccc(N2CCCC2=O)cc1)NC1CCCCC1 |  | inactive: -2.35%
Nc1c(C(=O)c2ccccc2)sc2snc(SCC(=O)c3ccccc3)c12 | inconclusive: 28.2 µM [inhibitor, single point] | 
CCCOc1ccc(NC(=O)C2CC(=O)N/C(=N/N=C(C)/C=C/c3ccc(N(C)C)cc3)S2)cc1 (stereo not drawn) | inconclusive: 28.2 µM [inhibitor, single point] | 
NC(=O)CNC(=O)[C@@H]1CC2(CC(c3cccc(Br)c3)=NO2)CN1C(=O)c1ccc(Br)cc1 (stereo partly drawn) |  | inactive: -0.282%
Cc1cc(C)c(NC(=S)N(Cc2cccnc2)Cc2ccco2)c(C)c1 | inconclusive: 5.01 µM [inhibitor, full curve] | 
CC(=O)c1c(C)[nH]c(C(=O)CSc2nc3ccc(C)cc3[nH]2)c1C |  | inactive: 7.09%
Nc1n[nH]c(-c2ccccc2)n1 | inconclusive: 31.6 µM [inhibitor, single point] | 
Cc1onc(-c2ccccc2)c1C(=O)NC1C(=O)N2C(C(=O)O)C(C)(C)S[C@@H]12 (stereo partly drawn) |  | inactive: -4.39%
Cc1ccc(C2C3=C(CCCC3=O)Nc3[nH]c(=S)[nH]c(=O)c32)cc1 (stereo not drawn) | inconclusive: 25.1 µM [inhibitor, single point] | 
CC(=O)Nc1ccc(C(=O)/C=C/c2ccco2)cc1 | inconclusive: 35.5 µM [inhibitor, single point] | 
CCN(CC)C(=O)/C(=C\c1cccc([N+](=O)[O-])c1)NC(=O)c1ccco1 |  | inactive: 3.66%
CN(c1ccccc1)S(=O)(=O)c1ccc(C(=O)Nc2nnc(C3=COCCO3)o2)cc1 | inconclusive: 39.8 µM [inhibitor, single point] | 
O=C(Oc1ccc(-c2cnc3ccccc3n2)cc1)c1ccco1 | inconclusive: 39.8 µM [inhibitor, single point] | 
COc1ccc2nc3cc(Cl)ccc3c(C#N)c2c1 | inconclusive: 12.6 µM [inhibitor, partial curve] | 

SMILES | Potency | activity change, negative = inhibition
C=CCn1c(-c2ccccc2)c[nH]c1=S | inconclusive: 35.5 µM [inhibitor, single point] | 
CC(C)Cn1c(CNC(=O)c2ccccc2)nc2ccccc21 |  | inactive: -0.127%
CCCCNC(=O)CC1NCCNC1=O (stereo not drawn) |  | inactive: -0.205%
CCOC(=O)c1c(CN(C)C)n(C)c2ccc(OC(C)=O)cc12 | inconclusive: 39.8 µM [inhibitor, single point] | 
CCCCn1c(SCC(=O)NCc2ccccc2)nc2ccc(N3CCOCC3)cc2c1=O | inconclusive: 31.6 µM [inhibitor, partial curve] | 
Cc1nn(-c2ccccc2)c(Cl)c1/C=N/NC(=O)c1ccc(NS(=O)(=O)c2cccs2)cc1 | inconclusive: 35.5 µM [inhibitor, single point] | 
CCN1C2=C(C(=O)CCC2)C(c2ccc(O)cc2)C2=C1CCCC2=O |  | inactive: -29.9%
CCOC(=O)c1c(NC(=O)c2c(-c3ccccc3)noc2C)sc(C)c1-c1ccccc1 | inconclusive: 35.5 µM [inhibitor, partial curve] | 
O=C(/C=C/c1ccco1)c1ccc(O)cc1 | inconclusive: 31.6 µM [inhibitor, single point] | 
O=C(Nc1ccc(Cl)cc1)Nc1cnccn1 | inconclusive: 31.6 µM [inhibitor, partial curve] | 
N#Cc1c2n(c(=O)[nH]c1=O)CCCCC2 |  | inactive: 8.09%
COc1ccccc1NC(=O)CN1CC(=O)Nc2ccccc21 | inconclusive: 31.6 µM [inhibitor, single point] | 
CCOc1ccccc1-n1nnnc1SCC(=O)NC(=O)Nc1ccc2c(c1)OCCO2 |  | inactive: -0.952%
CCC(=O)N1N=C(c2c(-c3ccccc3)c3cc(Cl)ccc3[nH]c2=O)CC1c1ccco1 (stereo not drawn) | inconclusive: 22.4 µM [inhibitor, partial curve] | 
COc1ccc2[nH]c(=O)c(CN(Cc3cccnc3)C(=S)NCC3CCCO3)cc2c1 (stereo not drawn) | inconclusive: 31.6 µM [inhibitor, partial curve] | 
Cc1ccc(N=Nc2c(O)ccc3n[nH]nc23)cc1 |  | inactive: -2.17%
Cc1cc(OCCCCn2ccnc2)cc(C)c1Cl |  | inactive: 2.22%
CCCCOC(=O)c1sc2nc(C)cc(C)c2c1N | inconclusive: 22.4 µM [inhibitor, partial curve] | 
COc1cc(/C=N/NC(=O)c2sc3nc(C)cc(C)c3c2N)ccc1O | inconclusive: 31.6 µM [inhibitor, partial curve] | 
CCOc1ccc(Cl)cc1/C=N/NC(N)=O |  | inactive: 3.73%
S=C(c1ccccc1)N1CCN(C(=S)c2ccccc2)CC1 |  | inactive: 4.48%
O=C(CSc1nc(-c2ccc(F)cc2)nc2c1Cc1ccccc1O2)Nc1ccc(C(=O)O)cc1 | inconclusive: 20 µM [inhibitor, single point] | 
COC(=O)c1cc(OC)nc(OC)c1 | inconclusive: 39.8 µM [inhibitor, single point] | 

— PubChem BioAssay AID2147 (National Center for Advancing Translational Sciences (NCATS), 2009)
